± gives the standard deviation of the averaged measurements. Some of the results follow.

This experiment relates to PfAP2-G AP2 domain (GST-tagged). The experiment in a line: gcPBM binding intensity (ln(normalized median fluorescence intensity)); higher = stronger DNA binding. The method in brief: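 Alexa488 anti-GST antibody, scanned at 488 nm, detected GST-tagged P. falciparum DNA-binding domains that had been expressed in E. coli and incubated for 1 h on an Agilent 4 × 180k array. The array carried primer-extended double-stranded 36-bp intergenic genomic probes and negative controls. Binding intensity is the highest Masliner-normalised natural-log median intensity across replicate spots of either orientation of each probe.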
Regarding “AATTTTTATTTGTACACACATACATATATATTATAT [CACACA_site993]”, the “gcPBM binding intensity (ln)” value was 11.4 ± 0.83.
As to “ATACGAAGTACGTACACACACTTATATGTTACTAAA [CACACA_site7812]”, the “gcPBM binding intensity (ln)” value came out at 11.7 ± 1.
In the case of “TATATATGCATTAAATGATGTTCCTGTTTTTTAAAA [CACACA_negctrl_site1378]” it was 10.01 ± 0.021; in that of “AATAAATAAATATATACACACATATATGTCTACATA [CACACA_site3158]”, 9.89 ± 0.014.
Consider “TTTATATCATTTCTTAAAAAAAAGGAGGTAATAGAC [TGCATGCA_negctrl_site555]”, for which the “gcPBM binding intensity (ln)” value amounted to 10.4 ± 0.42.
The value for “TTTTTATTAAGACATGCATGGAAACGCACTATTTTA [TGCATGCA_site999]” was 10.2 ± 0.32; that for “TTCGATGAATATACAAGTACATATCCTTACGAACTG [XGTACX_site1650]” was 11.1 ± 0.88; that for “TTGCATTACGAACATACACACAGAATAACTGAAAAC [CACACA_site3025]” was 10.2 ± 0.11.
In the case of “TATGTTGATGATATTACACACCCAATGAGAAAAGGA [CACACA_site7060]”, the “gcPBM binding intensity (ln)” value stood at 10.3 ± 0.2.
In the case of “CAACCATTTGTAGGTAAACACACATTATTATTAATA [CACACA_site8842]” it was 10.1 ± 0.11; in that of “GTGTGATATAATTTTTTTAGAGCTTTATAATATTAT [CACACA_negctrl_site233]”, 10 ± 0.2.
As for “TCAATTAATTATTTTTGTACACAAGAATTACTGAAT [XGTACX_site6401]”, the “gcPBM binding intensity (ln)” value is 11.2 ± 0.83.
In the case of “AAGTTACAGAATATCACACATAAATTATCTGTATAT [CACACA_site5116]” it was 9.69 ± 0.2; in that of “GTTAAGCAATATATATGTACTTATGGAATAGAAAAA [XGTACX_site3693]”, 11.2 ± 0.81.
As for “ATACACACAGCCTAAACATGCATATAGAAAAAAGAA [TGCATGCA_site1028]”, the “gcPBM binding intensity (ln)” value is 10.2 ± 0.32.
For “TTTGTCAAATAATATTGTACTAAAAAATTTTGCCTT [XGTACX_site7485]”, the “gcPBM binding intensity (ln)” value was 11.1 ± 0.64.
The value for “TATTTGTAATATAACACACACAAAAAAAGACTCGGA [CACACA_site1681]” was 10.3 ± 0.31.
The value for “TATACATATACATATACACACACACCCATAAATAAA [CACACA_site8372]” was 10.4 ± 0.28; that for “TTAACACATGCTTGGTCACACACGTATGCATATTTA [CACACA_site2127]” was 10.7 ± 0.39.
The value for “TTTATTTACTATTAAAGTACTAAATCATATAATTAT [XGTACX_site2580]” was 10.8 ± 0.54; that for “GAAATAAGGGTTATTTCACACATTGCATGTATTTTC [CACACA_site5752]” was 9.98 ± 0.099; that for “ATATATATTAATTTTGTGCACAAATGGAAATGTTTG [GTGCAC_site9971]” was 10.5 ± 0.24.
In the case of “AATACATCATTAAAATGTACATATATATATACATTA [XGTACX_site132]”, the “gcPBM binding intensity (ln)” value was determined as 10.9 ± 0.67.
In the case of “ATTATAATAATGTGATGTACATTAATTGTCTTCCTA [XGTACX_site5404]” it was 11 ± 0.48.
The value for “TTTTGGCTTCTAATATTATACAAAATGGTAAGGAAA [TGCATGCA_negctrl_site169]” was 10.5 ± 0.91.
In the case of “ATGCAATAATAATATTGTACGCATATATTTTTTACT [XGTACX_site3384]” it was 11.6 ± 1.3; in that of “AGAATACAAAATTGCACACATATTGTGAAAATGTTA [CACACA_site4005]”, 9.98 ± 0.057; in that of TTATTTATTTATTGGGTGCACTTGATTTAAATATGC, 10.5 ± 0.45.
Regarding “AAAAAAAAAAAAAAAACACACACATATATATAATAT [CACACA_site9038]”, the “gcPBM binding intensity (ln)” value is 10.2 ± 0.3.
The value for “TTTTTTTTTTTTTTATGTACTAAAAAATGAAAAATA [XGTACX_site6812]” was 10.8 ± 0.41; that for “AAATACTTAACATTGGTGCATATTTGTAAAATTATT [GTGCAC_site9515]” was 10.2 ± 0.25; that for “GATTATTTTATAAGTACACACATTTATCTATAATAA [CACACA_site7256]” was 11.5 ± 0.98.
The value for “AATACATGCTTATTTTAACACACAAATGGTAGTAAT [CACACA_site8154]” was 10.02 ± 0.078.
In the case of “CTTATATTTAGACACACACACAATAAAATGAAAAAA [CACACA_site1031]” it was 10.3 ± 0.34; in that of “AACCATGTTAACAACGCATGTATATCTATGGGTTTA [TGCATGCA_site419]”, 9.74 ± 0.085; in that of “GATTAATACACATTCTTCCGACATAATAAGAAAAAG [GTGCAC_negctrl_site7]”, 10.3 ± 0.26.
For the sequence “CACCCACACCAACACACACACATATATAATATATAT [CACACA_site595]”, the “gcPBM binding intensity (ln)” value was 10.3 ± 0.33.
The value for “CCATAATATTATAGACGTACGAATATATATAAAAGA [XGTACX_site7295]” was 11.1 ± 0.65; that for “TTATAAAATATTTTTTGTACACATAATAGTAAGACT [XGTACX_site933]” was 11.5 ± 0.91; that for “AGCTAATATATCTTATATTCATATAAAAAAATATAT [CACACA_negctrl_site1786]” was 9.69 ± 0.12.
In the case of “TGACTTTTTTTATGTTGTACTTATTATAAAAAAAAT [XGTACX_site7736]” it was 11.3 ± 0.95; in that of “TTTTTTAAATGTCATTGTACATAATTCAATATATAA [XGTACX_site5]”, 10.8 ± 0.71; in that of “TATATATATATTATATGTACACATTTGTGAATTATT [XGTACX_site5848]”, 11.5 ± 0.85.
In the case of “TGTACAAATTATACTTCGAACGAAGGGCATACATAT [XGTACX_negctrl_site37]” it was 10.7 ± 0.33.
